Test results: PubChem BioAssay AID588591 (National Center for Advancing Translational Sciences (NCATS), 2011)
Screen size: about 390,000 compounds; about 4,700 (1.2%) were called active. Inconclusive means that the source gave no clear call. Such entries were picked first, then a sample of the others. Calls come from the whole dose curve; as a rule, active = well fitted inhibition curve with a large enough effect; inconclusive = small, poorly fitted or top-dose-only effect, or another doubt; inactive = no such curve, though single readings can be large or run the other way. Potencies of inconclusive entries are doubtful fits and often do not repeat.

molecular target: DNA polymerase eta (Homo sapiens) (UniProt Q9Y253); assay: qHTS for Inhibitors of Polymerase Eta; details: recombinant Pol eta, fluorescent DNA replication assay; series mostly up to 114 µM; activity change, negative = inhibition: at the top concentration
Outline: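 Pol eta at 10 nM preincubated with compounds 15 min at room temperature; reaction started with fluorescent substrate (50 nM final) and read kinetically at 0 and 10 min.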
% is set by controls: 0 for no effect and ±100 for the full control effect; potency is the fitted concentration of half-maximal effect; tags give direction and shape of the fitted curve.

Sequence of UniProt Q9Y253 (Q9Y253 whole entry, looked up): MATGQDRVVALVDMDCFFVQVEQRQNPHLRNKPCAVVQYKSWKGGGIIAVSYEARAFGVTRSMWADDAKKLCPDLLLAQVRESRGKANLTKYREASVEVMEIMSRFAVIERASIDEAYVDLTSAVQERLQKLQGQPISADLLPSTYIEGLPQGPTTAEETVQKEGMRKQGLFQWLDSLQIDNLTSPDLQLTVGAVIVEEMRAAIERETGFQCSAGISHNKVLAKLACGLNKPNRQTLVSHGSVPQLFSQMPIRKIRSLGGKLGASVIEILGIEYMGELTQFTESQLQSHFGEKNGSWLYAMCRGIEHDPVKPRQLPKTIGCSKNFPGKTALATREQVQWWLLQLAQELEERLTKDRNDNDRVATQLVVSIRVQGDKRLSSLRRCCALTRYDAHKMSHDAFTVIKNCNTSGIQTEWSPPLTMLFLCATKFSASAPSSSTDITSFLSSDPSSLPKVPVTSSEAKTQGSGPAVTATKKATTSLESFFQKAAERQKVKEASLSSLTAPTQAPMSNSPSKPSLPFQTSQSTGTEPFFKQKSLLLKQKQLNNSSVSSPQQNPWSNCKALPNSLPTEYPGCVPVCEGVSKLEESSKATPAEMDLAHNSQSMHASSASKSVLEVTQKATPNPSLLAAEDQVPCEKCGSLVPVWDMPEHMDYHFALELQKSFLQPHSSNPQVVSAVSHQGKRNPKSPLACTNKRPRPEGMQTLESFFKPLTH

SMILES	Potency	activity change, negative = inhibition
Cc1ccc(NCc2nnc(SCC(=O)c3ccccc3)n2Cc2ccco2)c(C)c1	inconclusive: 22.4 µM [inhibitor, partial curve]	
Nc1ccc(S(N)(=O)=O)cc1N	inconclusive: 14.1 µM [inhibitor, full curve, poor fit]	
CCc1ccc(NC(=O)C(=O)NCC(c2ccc3c(c2)OCO3)N2CCOCC2)cc1 (stereo not drawn)		inactive: -17.2%
CSc1ccccc1OCc1cc(C(=O)N2CCN(c3ccccc3)CC2C)no1 (stereo not drawn)	inconclusive: 89.1 µM [inhibitor, partial curve, poor fit]	
COCCNC(=O)c1ccc(-n2c(-c3ccccc3)cc3c2CCCCC3)cc1		inactive: 4.7%
Cc1nc2sc(C(c3ccco3)N3CCc4ccccc4C3)c(O)n2n1 (stereo not drawn)	inconclusive: 70.8 µM [inhibitor, partial curve]	
Cc1nc(-c2ccc(Cl)cc2)sc1C1(C)CC(c2cccc(Cl)c2)=NO1 (stereo not drawn)	inconclusive: 89.1 µM [inhibitor, partial curve, poor fit]	
COc1cccc(N2C(=O)CSC23C(=O)N(Cc2ccccc2)c2ccccc23)c1 (stereo not drawn)	inconclusive: 89.1 µM [inhibitor, partial curve, poor fit]	
Cc1ccc(/C=N/NC(=O)c2nnn(-c3nonc3N)c2CSc2ccccc2)o1		inactive: -9.81%
CN(Cc1ccccc1)C(=O)CSc1nc2ccsc2c(=O)n1-c1ccc(F)cc1		inactive: -5.27%
Cc1cc(C)c2nc3c(c(C(=O)O)c2c1)CCC3	active: 14.1 µM	
CCn1c(=O)c2cc(C(=O)N(C)c3ccc(OC)cc3OC)sc2c2ccccc21	inconclusive: 31.6 µM [inhibitor, single point]	
Cc1ccccc1NC(=O)Cc1nc(COC(=O)CSc2ccc(F)cc2)cs1	inconclusive: 79.4 µM [inhibitor, partial curve, poor fit]	
CN(Cc1c(O)ccc2c1oc(=O)c1ccccc12)C1CCCCC1		inactive: -26.3%
CC(=O)Oc1ccc2c(=O)c(/C=N/c3cc(=O)[nH]c(=S)[nH]3)coc2c1	inconclusive: 44.7 µM [inhibitor, partial curve, poor fit]	
CCCCCCSc1nc(O)c(C2OC(=O)c3c2ccc(OC)c3OC)c(=O)n1-c1ccccc1 (stereo not drawn)	active: 17.8 µM	
COc1cccc(NC(=O)c2cc(-c3ccco3)nc3ccccc23)c1	inconclusive: 25.1 µM [inhibitor, partial curve, poor fit]	
Cc1cc(C(=O)COC(=O)c2ccc(Cl)c(S(N)(=O)=O)c2)c(C)n1C1CC1	inconclusive: 39.8 µM [inhibitor, partial curve, poor fit]	
